About 2,200 (0.71%) of roughly 310,000 compounds showed an effect of 50% or more. Effects have a minus sign here. The list shows a part of the results.
Target: human ether-à-go-go-related gene (hERG) potassium channel (human, UniProt Q12809)
Assay: primary screen, population patch clamp on CHO cells stably expressing hERG

Chain of human ether-à-go-go-related gene (hERG) potassium channel (Q12809 whole entry, looked up): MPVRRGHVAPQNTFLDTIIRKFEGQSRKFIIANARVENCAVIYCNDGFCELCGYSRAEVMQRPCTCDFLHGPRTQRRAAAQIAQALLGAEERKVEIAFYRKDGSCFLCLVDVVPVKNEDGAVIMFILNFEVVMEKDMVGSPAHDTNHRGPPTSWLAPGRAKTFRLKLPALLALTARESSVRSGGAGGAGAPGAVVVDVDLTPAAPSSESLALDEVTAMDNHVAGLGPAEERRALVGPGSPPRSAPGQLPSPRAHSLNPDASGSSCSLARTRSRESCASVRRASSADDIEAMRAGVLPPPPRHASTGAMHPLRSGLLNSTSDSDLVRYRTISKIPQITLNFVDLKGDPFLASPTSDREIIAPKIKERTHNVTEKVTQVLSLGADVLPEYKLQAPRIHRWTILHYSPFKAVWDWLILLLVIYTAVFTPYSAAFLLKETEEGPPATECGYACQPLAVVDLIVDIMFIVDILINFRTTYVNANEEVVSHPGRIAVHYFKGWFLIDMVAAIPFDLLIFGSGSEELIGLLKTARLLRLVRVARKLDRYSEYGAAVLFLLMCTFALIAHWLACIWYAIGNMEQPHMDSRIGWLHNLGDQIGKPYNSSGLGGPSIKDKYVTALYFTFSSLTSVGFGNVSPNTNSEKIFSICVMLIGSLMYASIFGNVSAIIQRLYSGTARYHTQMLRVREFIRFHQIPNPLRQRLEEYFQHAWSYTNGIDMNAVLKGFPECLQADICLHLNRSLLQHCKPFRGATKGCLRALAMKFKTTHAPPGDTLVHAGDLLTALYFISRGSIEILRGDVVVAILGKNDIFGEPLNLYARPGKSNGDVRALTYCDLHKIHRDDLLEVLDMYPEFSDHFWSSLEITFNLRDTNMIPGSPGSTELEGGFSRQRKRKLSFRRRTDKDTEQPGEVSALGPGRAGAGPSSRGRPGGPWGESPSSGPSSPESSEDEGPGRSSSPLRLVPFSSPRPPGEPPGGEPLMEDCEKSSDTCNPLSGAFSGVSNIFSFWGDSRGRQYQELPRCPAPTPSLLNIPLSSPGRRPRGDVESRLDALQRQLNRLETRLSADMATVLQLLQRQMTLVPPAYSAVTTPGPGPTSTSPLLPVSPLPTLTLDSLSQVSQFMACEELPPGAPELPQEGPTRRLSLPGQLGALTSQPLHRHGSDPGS

| SMILES | hERG current change (%, negative = inhibition) at 1uM [%] |
| --- | --- |
| COc1ccc(S(=O)(=O)NC(CC(=O)NCc2ccccc2OC)c2ccco2)cc1 (stereo not shown) | -21 |
| CCOC(=O)/C(=N\Nc1cccc(C(F)(F)F)c1)N(CCOC)CCOC | -10.3 |
| Cc1ccc(Cn2ccc(NC(=O)c3noc4c3CCc3ccccc3-4)n2)cc1 | 14.6 |
| O=C(CSc1nc2ccccc2c(=O)n1CCC(=O)N1CCCCC1)NCc1ccccc1 | -43.1 |
| Nc1c(C(=O)N/N=C/c2ccc([N+](=O)[O-])cc2)sc2nnc(-c3ccccc3)c(-c3ccccc3)c12 | 12.8 |
| Cc1cc(C(=O)NNS(=O)(=O)c2ccc(F)cc2)nn1C(C)(C)C | 8.83 |
| CCSc1nc2c(cnn2-c2ccc(C)c(C)c2)c(=O)[nH]1 | 16.1 |
| O=C(Nc1ccccc1)C1=C[C@H](C2CCCCC2)C[C@H](OCc2ccc(CO)cc2)O1 | 13.7 |
| Cc1ccc(OCCCC(=O)N(C)CC(=O)Nc2ccccc2Cl)cc1 | 8.06 |
| O=C(NC1CC1)C1=C[C@@H](c2ccc3c(c2)OCO3)C[C@@H](OCCCCO)O1 | 8.09 |
| O=C(CCCn1cncn1)N1CCCC(N2CCN(c3ccccc3F)CC2)C1 (stereo not shown) | 15.8 |
| O=C(c1cc(=O)c2ccccc2o1)N1CCCc2ccccc21 | 4.51 |
| CCOC(=O)C(NC(=O)c1ccccc1)=C1CCCCC1 | 16.2 |
| Cc1nc(NCCc2ccc(S(N)(=O)=O)cc2)c2c(C)c(C)sc2n1 | 10.2 |
| C#C[C@]1(O)CC[C@H]2[C@@H]3[C@H](C)CC4=C(CCC(=O)C4)[C@H]3CC[C@@]21C | 5.64 |
| Cn1cc(S(=O)(=O)N2CCC(C(N)=O)CC2)c(=O)n(C)c1=O | 11 |
| O=C(CNC(=O)c1cccc(OC(F)F)c1)OCc1cc(=O)n2cc(Br)ccc2n1 | -5.96 |
| CN1C=C(C(F)(F)F)C=C/C1=C(\C#N)c1nnc2n1CCCCC2 | 9.49 |
| N#C/C(=C/c1ccccc1[N+](=O)[O-])c1nnc2n1CCCCC2 | 10.2 |
| COc1cc(NC(=O)Cc2ccccc2)ccc1NC(=O)Cc1ccccc1 | 18 |
| O=C(COC(=O)Cc1ccc(Cl)cc1)NCc1ccc(F)cc1 | 0.242 |
| COc1cc(/C=C(\C#N)c2nc3c(s2)CC(C)CC3)ccc1O (stereo not shown) | 14.2 |

| SMILES | hERG current change (%, negative = inhibition) at 1uM [%] |
| --- | --- |
| CC(=O)Nc1cc(-c2ccc(Cl)cc2)[nH]n1 | 8.05 |
| COc1ccc(C2CC(c3ccccc3)=NN2C(=O)c2ccc(Cl)c([N+](=O)[O-])c2)cc1 (stereo not shown) | 9.38 |
| Cc1cccc(CSc2[nH]c(=O)ncc2C)c1 | 9.08 |
| CN1C(=O)N(C)C(=O)C2(Cc3cc([N+](=O)[O-])ccc3N3CCN(C(=O)c4ccccc4)CC32)C1=O (stereo not shown) | -30.8 |
| CN(C)CCn1cnc2ccccc21.Cl | 8.56 |
| COc1ccccc1C=NC(CO)C(O)c1ccc([N+](=O)[O-])cc1 (stereo not shown) | 3.78 |
| COC(=O)Nc1nnc(Cc2ccc(Cl)cc2)s1 | -1.19 |
| COC(=O)CC(NC(=O)CN1CCN(c2ccc(F)cc2)CC1)c1cccc(F)c1 (stereo not shown) | -3.38 |
| CCOC(=O)c1nn(-c2ccccc2C)c(=O)cc1OCC(=O)Nc1cccc(OC)c1 | 13 |
| Cc1ccc(NC(=O)CCCCCN2C(=O)[C@@H]3Cc4ccccc4CN3C2=O)c(C)c1 | 12.5 |
| COc1ccc(CCC(=O)Nc2cnc3ccccc3c2)cc1 | -1.69 |
| O=C(NCCCn1ccnc1)/C(=C/c1ccc(Cl)cc1)NC(=O)c1ccccc1 | -82.5 |
| Cc1ccc(S(=O)(=O)N2CCN(c3ccccc3)CC2)cc1C(=O)NC1CCCCC1 | 10.8 |
| O=C(NCC1CCCO1)c1ccc(C(=O)NCC2CCCO2)cc1 (stereo not shown) | 4.4 |
| CN(CC(=O)N1CCN(c2ccc(F)cc2)CC1)S(=O)(=O)c1ccc(F)cc1 | -34.9 |
| CCC(C)Nc1nc2c(c(=O)[nH]c(=O)n2C)n1CCOc1ccccc1 (stereo not shown) | 5.15 |
| Cl.Fc1cccc(Nc2ncnc3sc4c(c23)CCC4)c1 | 12 |
| COc1cc(C2c3c([nH]c(=O)[nH]c3=O)Nc3ccc4ccccc4c32)cc(OC)c1OC (stereo not shown) | 13.1 |
| O=C(CN1CC(=O)Oc2ccccc21)OCC(=O)c1ccc(Br)cc1 | 7.1 |
| O=C(NCCCn1ccnc1)/C(=C/c1ccc(F)cc1)NC(=O)c1ccccc1 | -72.2 |
| CCOC(=O)c1nn2c(C(F)(F)F)cc(-c3ccc(OC)cc3)nc2c1Br | 17.6 |
